# Measurements as given in PubChem BioAssay AID624296 (National Center for Advancing Translational Sciences (NCATS), 2012).
# Values joined by “and” are separate entries in the source; they are usually repeats but may differ in a detail not shown here. Equal values may be shown once. Hit rate of the full screen: of about 350,000 compounds, about 9,900 (2.8%) were called active. Inconclusive means that the source gave no clear call. Such entries were picked first, then a sample of the others. Calls follow the shape of the dose curve; as a rule, active = well fitted activation curve with a large enough effect; inconclusive = small, poorly fitted or top-dose-only effect; inactive = no such curve, though single readings can be large or run the other way. Potencies of inconclusive entries are doubtful fits and often do not repeat.
# Assay: A quantitative high throughput screen for small molecules that induce DNA re-replication in MCF 10a normal breast cells. Also: nearly all actives have a fitted effect of over 50% in size.
# Conditions: MCF 10A DNA re-replication, Hoechst nuclear intensity, 48 h; series mostly up to 46.1 µM
# Potency is read from the fitted curve at half-maximal effect; tags tell the direction and shape of the fitted curve.
row,Structure (SMILES),Potency
1,CC(Oc1ccc2c(-c3ccccc3)cc(=O)oc2c1)C(=O)N1CCC[C@@H]1C(N)=O (stereo partly drawn),inactive
2,O=C(NCCOc1ccccc1Cl)c1cccc2c1C(=O)c1ccc(Cl)cc1S2(=O)=O,"inconclusive: 3.66 µM [activator, full curve]"
3,CN(CC(=O)NCCN1CCOCC1)S(=O)(=O)c1ccc(Cl)cc1,"inconclusive: 0.291 µM [activator, partial curve, poor fit]"
4,O=[N+]([O-])c1cccc(S(=O)(=O)N2CCC(c3nc(-c4ccncc4)no3)CC2)c1,inactive
5,Cc1ccc2cn[nH]c2c1NC(N)=S,inactive
6,COC(=O)[C@@]1(Cc2ccccc2)[C@H]2C(=O)N(Cc3ccccc3)C(=O)[C@H]2[C@H]2CN=C(SC)N21,"inconclusive: 6.51 µM [activator, partial curve]"
7,CC1CCN(C(=O)COC(=O)c2ccc(Br)o2)CC1,inactive
8,CCN(CC)CCN(C)C(=O)CCc1nnc(-c2ccc(C)s2)o1,"inconclusive: 18.4 µM [activator, partial curve, poor fit]"
9,CCCNC(=O)c1n[nH]c2c1CC(C(C)(C)CC)CC2 (stereo not drawn),inactive
10,Cc1cc(C)nc(SCC(=O)N2CCC(C(N)=O)CC2)n1,"inconclusive: 32.6 µM [activator, partial curve, poor fit]"
11,O=C(c1cc2nc(-c3ccco3)cc(C(F)(F)F)n2n1)N1CCN(c2ccc(F)cc2)CC1,"inconclusive: 20.6 µM [activator, single point]"
12,Cc1ccsc1/C=N/NC(=O)CNC(=O)c1ccc(S(=O)(=O)N(C)C)cc1,"inconclusive: 13 µM [activator, partial curve, poor fit]"
13,CC1(C)CC(=O)C2=C(C1)NC(SCC(=O)Nc1ccccc1)=C(C#N)C2c1ccco1 (stereo not drawn),active: 16.4 µM
14,CCN(CC)C(=O)CN(C#N)c1nc(Cl)nc(N(C)C)n1,"inconclusive: 5.8 µM [activator, partial curve]"
15,Cc1ccc(S(=O)(=O)N(C)C)cc1NC(=O)C(C)OC(=O)c1ccc2ccccc2n1 (stereo not drawn),inactive
16,Cc1ccc(CCNc2ccc3ccccc3c2)cn1,"inconclusive: 11.2 µM [activator, partial curve, poor fit]"
17,COc1ccc(OC)c(NC(=O)CN(c2ccc(C)cc2)S(=O)(=O)c2c(C)noc2C)c1,inactive
18,CN1CCN(c2ccc(NC(=S)NC(=O)/C=C/c3ccco3)cc2)CC1,"inconclusive: 29.1 µM [activator, single point]"
19,CCOc1ccc(S(=O)(=O)NNC(=O)c2cc3ccccc3o2)cc1,"inconclusive: 29.1 µM [activator, single point]"
20,CSc1ccc(OCC(=O)Nc2ccc(N3CCOCC3)c(Cl)c2)cc1,"inconclusive: 25.9 µM [activator, partial curve, poor fit]"
21,NC(=O)C1CCN(Cc2nc3cc(C(F)(F)F)ccc3c(=O)[nH]2)CC1,"inconclusive: 23.1 µM [activator, single point]"
22,CCCCOC(=O)c1ccc(NC(=O)/C=C/c2cccs2)cc1,"inconclusive: 25.9 µM [activator, single point]"
23,CC(OC(=O)CNC(=O)c1ccc(Cl)c([N+](=O)[O-])c1)C(=O)NCc1ccco1 (stereo not drawn),"inconclusive: 18.4 µM [activator, single point]"

row,Structure (SMILES),Potency
1,C/C1=C\CCC2C(/C=C(\C)CC1)OC(=O)C2CN1CCCCC1 (stereo not drawn),"inconclusive: 20.6 µM [activator, single point]"
2,O=C(CCCn1cnc([N+](=O)[O-])n1)Nc1cc(Cl)ccc1O,"inconclusive: 25.9 µM [activator, partial curve, poor fit]"
3,COc1cccc2c(SCC(=O)N/N=C/c3ccccc3)cc(C)nc12,"inconclusive: 20.6 µM [activator, single point]"
4,O=C(N/N=C/c1ccc(F)cc1)c1sccc1OCc1ccc(F)cc1,active: 7.31 µM
5,CC(C)c1ccc(OCC(=O)Nc2cccc3c2CCCC3)cc1,"inconclusive: 11.2 µM [activator, partial curve]"
6,CCCn1c(C)nc2c(c1=O)c1nc3ccccc3nc1n2CCC1=CCCCC1,"inconclusive: 20.6 µM [activator, single point]"
7,C=CCc1ccc(OCCOCCOc2ccc(C)cc2[N+](=O)[O-])c(OC)c1,"inconclusive: 16.4 µM [activator, single point]"
8,COc1ccc(-c2cc(C(=O)NC(C)c3ccccn3)c3ccccc3n2)cc1OC (stereo not drawn),"inconclusive: 29.1 µM [activator, single point]"
9,CCN(CC(=O)Nc1ccc(OC)cc1)CC(=O)Nc1ccc(Cl)cc1F,inactive
10,Cc1cc(C)c2c(-n3cccc3)c(C(=O)NNS(=O)(=O)c3ccc(Cl)cc3)sc2n1,"inconclusive: 23.1 µM [activator, single point]"
11,CCc1ccc(OCC(=O)NC(NC(=S)Nc2ccc(Cl)cc2)C(Cl)(Cl)Cl)cc1 (stereo not drawn),"inconclusive: 6.51 µM [activator, partial curve, poor fit]"
12,O=C(Nc1ccc(C(F)(F)F)cc1)c1ccccc1Br,inactive
13,O=C(Cc1nc2ccccc2[nH]c1=O)c1ccccc1,active: 20.6 µM
14,Cc1ccccc1N=C/C=C1\N(C)c2ccccc2C1(C)C,"inconclusive: 16.4 µM [activator, partial curve]"
15,O=C(CCS(=O)(=O)c1ccccc1)N(CCCN1CCOCC1)c1nc2ccc(F)cc2s1,active: 18.4 µM
16,O=C(CCNS(=O)(=O)c1ccccc1C(F)(F)F)N1CCN(S(=O)(=O)c2cccc(F)c2)CC1,"inconclusive: 6.51 µM [activator, single point]"
17,CC(=O)n1c(Cl)c(NC(=O)CCl)c2ccccc21,"inconclusive: 29.1 µM [activator, single point]"
18,O=C(c1ccc(S(=O)(=O)Cc2cc(F)ccc2F)c([N+](=O)[O-])c1)N1CCCC1,"inconclusive: 20.6 µM [activator, single point]"
19,COc1ccc2nc(NC(=O)c3c(C)noc3C)sc2c1,inactive
20,Cc1cc(C)c(C(=O)C(C)OC(=O)c2ccccn2)cc1C (stereo not drawn),inactive
21,CN1CCN(CCCNC(=O)c2ccc(/C=C3\Sc4ccccc4N(Cc4ccc(F)cc4)C3=O)cc2)CC1,active: 18.4 µM
22,Oc1ccc(-c2csc(Nc3ccccn3)n2)cc1O,inactive
23,O[C@@H](c1cc(C(F)(F)F)nc2c(C(F)(F)F)cccc12)[C@H]1CCCCN1,"inconclusive: 29.9 µM [activator, partial curve] and inconclusive: 206 nM [activator, full curve, poor fit]"

row,Structure (SMILES),Potency
1,c1ccc2nc(N3CCN(Cc4ccc5c(c4)OCO5)CC3)cnc2c1,"inconclusive: 29.1 µM [activator, single point]"
2,N#C/C(=C/c1ccc2c(c1)OCO2)C(=O)NCCc1c[nH]c2ccccc12,"inconclusive: 29.1 µM [activator, single point]"
3,Cc1[nH]c2ccccc2c1C(=O)NS(=O)(=O)Nc1ccc(F)cc1,inactive
4,Cc1cc(-c2ccc(C(C)C)c(S(=O)(=O)N3CC(=O)Nc4ccccc43)c2)on1,"inconclusive: 25.9 µM [activator, single point]"
5,CCn1c2ccccc2c2cc(NC(=O)c3ccc(Br)o3)ccc21,"inconclusive: 29.1 µM [activator, single point]"
6,O=C(CCCc1ccccc1)Nc1ccc(Br)cc1F,"inconclusive: 23.1 µM [activator, single point]"
7,O=C1OCCN1C(=O)[C@H]1[C@H](c2ccccc2)C(c2ccc(F)cc2)=NN1c1ccc(Br)cc1,active: 9.2 µM
8,Cc1ccc(NNC(=O)C(O)(c2cccc(C(F)(F)F)c2)c2cccc(C(F)(F)F)c2)cc1,active: 11.6 µM
9,CC1CCc2sc(C(=O)Nc3nnc(SCc4ccc(F)cc4)s3)cc2C1 (stereo not drawn),"inconclusive: 7.31 µM [activator, partial curve]"
10,O=C(COC(=O)/C=C/c1ccc(S(=O)(=O)N2CCc3ccccc32)cc1)NC1CCS(=O)(=O)C1 (stereo not drawn),inactive
11,Cc1nn(C)c(C)c1CN(Cc1nc(-c2cc(F)ccc2F)oc1C)C1CC1,inactive
12,CCOC(=O)C1=C(C)NC(C)=C(C(=O)OCC)C1C(=O)OCC(=O)N1CCCCC1C (stereo not drawn),"inconclusive: 6.51 µM [activator, full curve, poor fit]"
13,CC(C)CC(=O)Nc1cc2c3c(c1)C(C)C(=O)N3CCC2 (stereo not drawn),inactive
14,CCCCc1c(C)[nH]c(C(=O)OCC)c1C,"inconclusive: 25.9 µM [activator, single point]"
15,Nc1ccccc1Nc1cc(-c2ccccc2)[nH]n1,"inconclusive: 8.2 µM [activator, partial curve]"
16,C/C(=N\NC(=O)c1ccncc1)c1cc2ccccc2oc1=O,inactive
17,CCC(C)n1c(S(=O)(=O)O)nc2ccccc21 (stereo not drawn),inactive
18,CC(C)(C)NC(=O)NC(=O)CSc1ccc(S(=O)(=O)N2CCCCC2)cn1,inactive
19,CCOc1cc(/C=N/NC(=O)c2ccncc2)ccc1OC(=O)c1ccc([N+](=O)[O-])cc1,"inconclusive: 29.1 µM [activator, single point]"
20,O=C(O)c1cccc(NC(=S)N/N=C/c2cccnc2)c1,inactive
21,Cc1ccc2nc(SCc3nc4ccccc4c(=O)[nH]3)[nH]c2c1,"inconclusive: 25.9 µM [activator, single point]"
22,Cc1cc(N2CCN(Cc3cn(C)nc3-c3cccc(Cl)c3)CC2)cc(C)n1,"inconclusive: 29.1 µM [activator, single point]"
